# Source: PubChem BioAssay AID488969 (Vanderbilt High Throughput Screening Facility, 2010)
# The full ranking holds about 110,000 compounds; the median of “z-score” is about -0.1, and the highest 2% start at about 2. Some of the results follow.
# Target: Metabotropic glutamate receptor 8 (Rattus norvegicus) (UniProt P70579)
# Test: rat mGluR8 modulators via GIRK flux, primary screen, cell-based, thallium flux, HTS (AID 488969)
# Conditions: HEK293 rat mGluR8, GIRK (G protein-gated inwardly rectifying potassium channel) thallium flux, FluoZin2; at 10 µM; stronger effect = higher value; submaximal glutamate (EC20) added with thallium
# Chain of UniProt P70579 (P70579 whole entry, looked up): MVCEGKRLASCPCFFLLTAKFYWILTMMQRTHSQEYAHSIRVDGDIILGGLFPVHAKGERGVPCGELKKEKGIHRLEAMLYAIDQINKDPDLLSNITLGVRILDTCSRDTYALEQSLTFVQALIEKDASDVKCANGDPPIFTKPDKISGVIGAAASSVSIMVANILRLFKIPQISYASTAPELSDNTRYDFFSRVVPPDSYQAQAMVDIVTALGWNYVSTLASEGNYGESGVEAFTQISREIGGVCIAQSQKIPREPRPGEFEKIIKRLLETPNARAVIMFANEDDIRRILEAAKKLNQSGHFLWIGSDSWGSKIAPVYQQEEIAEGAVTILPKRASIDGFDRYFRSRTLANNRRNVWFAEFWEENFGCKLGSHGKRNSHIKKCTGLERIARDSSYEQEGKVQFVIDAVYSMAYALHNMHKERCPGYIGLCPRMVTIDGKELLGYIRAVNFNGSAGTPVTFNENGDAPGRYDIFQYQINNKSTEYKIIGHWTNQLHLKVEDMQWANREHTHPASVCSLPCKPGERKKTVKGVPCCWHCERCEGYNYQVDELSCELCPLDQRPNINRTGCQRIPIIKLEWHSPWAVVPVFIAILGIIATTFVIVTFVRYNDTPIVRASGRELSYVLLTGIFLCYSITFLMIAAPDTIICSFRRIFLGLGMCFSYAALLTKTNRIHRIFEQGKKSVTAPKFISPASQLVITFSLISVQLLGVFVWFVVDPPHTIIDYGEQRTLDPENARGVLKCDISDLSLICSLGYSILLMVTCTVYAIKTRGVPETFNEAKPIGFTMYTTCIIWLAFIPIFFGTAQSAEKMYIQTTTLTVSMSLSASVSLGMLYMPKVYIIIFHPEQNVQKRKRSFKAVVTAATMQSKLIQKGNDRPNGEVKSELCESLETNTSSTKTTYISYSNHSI
row,SMILES,z-score
1,CC(C)(C)n1nnnc1C(c1ccc(Cl)cc1)N1CCSCC1 (stereo not drawn),-0.187
2,O=C(Cc1ccc2c(c1)CCCC2)Nc1ccc2ccccc2c1,-0.121
3,COC(=O)c1c(NC(=O)C2(C)Cc3ccccc3C(=O)O2)sc2c1CCCC2 (stereo not drawn),-1.03
4,O=c1[nH]c(N2CCOCC2)nc2ncn(Cc3ccccc3)c12,0.18
5,CCCc1nc2ccccc2c(C(=O)OCC(=O)Nc2cccc(S(=O)(=O)N3CCOCC3)c2)c1CC,0.196
6,Cc1ccc(C(=O)N2CCN3C(=O)c4ccccc4C23c2ccc(Cl)cc2)cc1 (stereo not drawn),-0.253
7,Cc1nn(Cc2c(Cl)cccc2Cl)c(C)c1NC(=O)c1cnn2c(C(F)F)cc(-c3ccccc3)nc12,-0.375
8,CCOC(=O)c1c(C)[nH]c(C(=O)COC(=O)c2oc3ccccc3c2C)c1C,0.099
9,Cc1cc2nc(-c3ccc(SCC(=O)Nc4ccc(S(=O)(=O)NC5CC5)cc4)nc3)[nH]c2cc1C,-0.174
10,Cc1ccc(S(=O)(=O)c2ccc(Cl)cc2)cc1S(=O)(=O)NC(C)C(=O)O (stereo not drawn),-0.233
11,COc1cc(OC)cc(-c2nnc(SCC(=O)Nc3cc(C)on3)o2)c1,0.123
12,C=CCN1C(=O)/C(=C2/Sc3ccccc3N2CCCS(=O)(=O)O)SC1=S,-0.352
13,CCCn1c(SCC(=O)Nc2ccc3c(c2)OCCO3)nnc1-c1ccco1,-0.847
14,O=C(C(c1ccccc1)c1ccccc1)N1CCN(CCN2C(=O)c3cccc4cccc(c34)C2=O)CC1,-0.291
15,O=C(CN(Cc1ccccc1F)C(=O)Cn1nnc(-c2cccs2)n1)NCC1CCCO1 (stereo not drawn),-0.205
16,CCCCC(=O)NC(Nc1nc(C2CC2)cs1)(C(=O)OCC)C(F)(F)F (stereo not drawn),-0.154
17,Nc1nnc(N2CCCCCC2)s1,0.397
18,Cc1ccc(S(=O)(=O)N/N=C\c2cc3c(cc2Br)OCO3)cc1,0.0271
19,CCC(CC)NC(=O)COC(=O)c1cccc(C)c1O,-0.101
20,O=C(/C=C/c1ccco1)NC(=S)Nc1nc(-c2ccc3ccccc3c2)cs1,0.121
21,C=CCn1c(-c2cccn(Cc3cccc(Cl)c3)c2=O)n[nH]c1=S,-0.0224
22,O=C1c2ccsc2SCCN1Cc1cccc(Cl)c1,-0.274
23,CCCS(=O)(=O)N1CCC(C(=O)NCCN2CCCC2)CC1,-0.0743
24,CCOC(=O)C1CCCN(C(=O)c2ccc3c(c2)NC(=O)C(N2CCOCC2)S3)C1 (stereo not drawn),0.245
25,Cc1ccc(/C=N/NC(=O)c2csc3c2CCCC3)cc1,0.0975
26,CCOc1cc(/C=N\NC(N)=O)cc(Br)c1OC(C)C,-0.0957
27,COc1ccc(-c2c(C#N)c(N)nc3sc(C(=O)c4ccccc4)c(N)c23)cc1,-0.254
28,Cc1ccc(S(=O)(=O)N2CCN(S(=O)(=O)c3ccc(C)cc3)C3OCCOC32)cc1 (stereo not drawn),-0.0688
